Laboratory results reported in publication PMC4336329 (PLoS ONE, 2015).
In all, about 310,000 compounds went through this assay and about 2,200 (0.71%) showed an effect of 50% or more. The effect is printed as a negative number. This is one part of the list.

Each compound was assayed against human ether-à-go-go-related gene (hERG) potassium channel (human, UniProt Q12809) (assay: primary screen, population patch clamp on CHO cells stably expressing hERG).
Sequence of human ether-à-go-go-related gene (hERG) potassium channel (Q12809 whole entry, looked up): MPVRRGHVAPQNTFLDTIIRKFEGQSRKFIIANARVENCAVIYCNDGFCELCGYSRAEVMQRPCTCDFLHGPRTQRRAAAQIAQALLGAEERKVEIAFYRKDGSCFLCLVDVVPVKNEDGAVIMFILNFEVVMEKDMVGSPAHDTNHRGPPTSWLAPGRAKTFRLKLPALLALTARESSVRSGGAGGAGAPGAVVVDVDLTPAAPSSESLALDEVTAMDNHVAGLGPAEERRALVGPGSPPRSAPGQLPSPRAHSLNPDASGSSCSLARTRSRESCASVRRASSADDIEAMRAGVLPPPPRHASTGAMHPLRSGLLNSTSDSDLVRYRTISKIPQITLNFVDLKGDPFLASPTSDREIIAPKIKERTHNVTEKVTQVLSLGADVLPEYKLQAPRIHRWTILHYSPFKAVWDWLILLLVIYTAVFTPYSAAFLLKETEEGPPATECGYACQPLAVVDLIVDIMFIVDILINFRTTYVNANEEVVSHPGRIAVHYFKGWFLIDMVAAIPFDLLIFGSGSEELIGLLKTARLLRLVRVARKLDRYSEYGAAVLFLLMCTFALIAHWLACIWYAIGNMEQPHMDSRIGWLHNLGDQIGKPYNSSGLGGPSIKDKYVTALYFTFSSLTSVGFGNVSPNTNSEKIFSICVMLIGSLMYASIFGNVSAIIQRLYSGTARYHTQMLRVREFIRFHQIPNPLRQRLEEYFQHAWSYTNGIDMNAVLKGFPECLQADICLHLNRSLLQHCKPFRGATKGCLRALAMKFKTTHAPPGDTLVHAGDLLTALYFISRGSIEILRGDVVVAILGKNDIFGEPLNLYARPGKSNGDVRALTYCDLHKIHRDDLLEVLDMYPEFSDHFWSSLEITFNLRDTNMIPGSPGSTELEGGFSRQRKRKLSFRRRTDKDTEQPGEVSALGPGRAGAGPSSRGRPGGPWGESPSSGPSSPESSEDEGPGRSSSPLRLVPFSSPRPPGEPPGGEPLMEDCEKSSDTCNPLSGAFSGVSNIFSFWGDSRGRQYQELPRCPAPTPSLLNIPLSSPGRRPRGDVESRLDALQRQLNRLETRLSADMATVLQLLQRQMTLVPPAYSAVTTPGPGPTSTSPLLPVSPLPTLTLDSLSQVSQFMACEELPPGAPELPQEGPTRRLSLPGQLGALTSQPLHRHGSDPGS

Structure (SMILES) | hERG current change (%, negative = inhibition) at 1uM [%]
CCN1c2cccc3cccc(c23)S1(=O)=O | -2.47
C#CCOCCOCCOCCNc1nc(N2CCN(C(=O)[C@H]([C@@H](C)CC)n3cc(CCCC[NH3+])nn3)CC2)nc(N2CCN(C(=O)[C@H](C)n3cc(CCC[NH+]=C(N)N)nn3)CC2)n1.[Cl-] | 15.1
CC(C)[C@H](NC(=O)c1ccccc1)C(=O)N1CCc2ccccc21 | 4.91
COc1ccccc1/C=C/C=N/n1c(-c2ccc(Cl)cc2)n[nH]c1=S | 14.8
O=C(c1cccc(F)c1)N1CCN(S(=O)(=O)c2ccc(C(F)(F)F)cc2)CC1 | -11.4
COc1ccc(C(=O)c2coc3ccc(O)c(CN4CCCCC4)c23)cc1 | -61.4
COC(=O)N/N=C/C1=CCC2CC1C2(C)C (centres unmarked) | -3.78
CN(/C(=N/S(=O)(=O)c1cccs1)c1ccccc1)c1ccccc1 | -1.46
Cc1nn2c(nc1=O)NNC2(C)C(C)(C)C (centres unmarked) | 11.3
COc1ccc(-c2[nH]ncc2CN2CCC(N3CCSCC3)CC2)cc1F | 3.77
CCOC(=O)c1ccc(S(=O)(=O)Nc2cc(C(=O)O)ccc2Cl)cc1 | 5.69
COc1ccc(NC(=O)/C=C/c2ccc3c(c2)OCO3)cc1 | 4.24
CCOc1ccccc1OC(=O)c1cc2ccccc2oc1=O | 9.48
CCOc1ccc(OCC)c(NC(=O)CN(C)S(=O)(=O)c2cnc[nH]2)c1 | 9.52
COC(=O)[C@@H]1C2CCC(C(=O)Nc3ccccc3)(CC2)[C@@H]1C(=O)OC | 7.72
NC(=O)c1ccsc1NC(=O)CS(=O)(=O)c1ccccc1 | 16.9
CSc1nnc(C)c(/C=C/NOCc2ccc(Cl)cc2)n1 | 7.05
Cc1ccc2c(c1)C1CN(C)CCC1N2S(=O)(=O)c1cccc(F)c1 (centres unmarked) | 7.82
CCOC(=O)c1c(NC(=O)CSc2nnc(CN3CCOCC3)n2C)sc2c1CCCC2 | -5.11
O=C(COc1nsnc1N1CCOCC1)N/N=C/c1ccccc1O | 6.33
COc1ccc(CCC(C)NCC2CCCCC2)cc1 (centres unmarked) | 9.01
COc1ccc(N2CCN(C(=O)c3cn(C)c(=O)c4c3c3ccccc3n4C)CC2)cc1 | 2.57

Structure (SMILES) | hERG current change (%, negative = inhibition) at 1uM [%]
Cc1ccc(N(C(=O)c2sc(C)nc2C)C(C(=O)NC(C)(C)C)c2ccncc2)cc1 (centres unmarked) | 18.7
COc1ccc(NC(=O)CC2C(=O)N(c3ccc(Cl)cc3)C(=S)N2NC(=O)c2cccc(F)c2)cc1 (centres unmarked) | 13.4
COc1ccc(S(=O)(=O)N2CCOCC2)cc1NC(=O)Cc1ccc(Cl)c(Cl)c1 | 7.37
CCC(=O)c1ccc(N2CCN(C(=O)c3ccc(F)cc3)CC2)c(F)c1 | -10.2
O=C1OC(Nc2nc3ccccc3s2)c2ccccc21 (centres unmarked) | 2.78
CC[C@@]12C(=O)N(c3cccc(Cl)c3)C(=O)N1[C@H](c1cccc(C)c1)[C@@H]1C(=O)N(Cc3ccccc3)C(=O)[C@@H]12 | 6.88
Cc1nnc(SCC(=O)N(C)C2CCS(=O)(=O)C2)n1Cc1ccccc1 (centres unmarked) | 1.71
CCOC(=O)Cc1c(Sc2ccccc2)c2ccccc2n1C | 2.23
Cc1ccccc1/C=C/c1nc2ccccc2c(=O)[nH]1 | 12.2
O=S(=O)(Nc1cccc(-n2cnnn2)c1)c1cc(Cl)ccc1Cl | 11.4
COc1cccc(-n2nnc3c(=O)n(CC(=O)N4CCC(C)CC4)cnc32)c1 | 12.3
COc1ccc(OC)c(NC(=O)CSc2nc3ccccc3c(=O)n2CCNC(C)=O)c1 | 1.72
CN1CCN(C(=O)c2ccc(CN(c3ccccc3)S(=O)(=O)c3ccccc3)cc2)CC1 | -4.01
CC(=O)Nc1nc(C)c(-c2csc(Nc3cccc([N+](=O)[O-])c3)n2)s1 | 5.4
CCn1c(=S)sc2c(=O)n(CC(=O)Nc3cccc(OC)c3)c(C)nc21 | 16.9
CCCCCCCCNc1nc(Cl)nc(NCc2ccco2)n1 | 12.6
CC(C)CNC(=S)N1CCC(Cc2ccccc2)CC1 | 12.4
COc1ccc(-c2csc3nc(C)nc(N4CCN(c5ccc(C(C)=O)cc5)CC4)c23)cc1OC | 11.4
O=C(CN1C(=O)NC2(CCCCCC2)C1=O)c1ccc(Cl)cc1 | 6.98
COc1cc(-n2c(=O)c3ccccc3n(CC(=O)c3ccc(Br)cc3)c2=O)cc(OC)c1OC | 3.14
Cc1ccc(NC2=CC(=O)CC(c3ccco3)C2)c(N)c1 (centres unmarked) | 9.31
O=C(O)c1ccc2c(c1)C(=O)N(c1cccc(S(=O)(=O)Nc3cccc(C(F)(F)F)c3)c1)C2=O | 15.9

Structure (SMILES) | hERG current change (%, negative = inhibition) at 1uM [%]
COc1ccc(Cl)cc1S(=O)(=O)n1ccnc1 | 7.87
CCOC(=O)Cc1csc(SCC(=O)Nc2sc3c(c2C(N)=O)CCC3)n1 | -3.74
CCC1CCCCN1C(=O)c1c[nH]c2ccc(S(=O)(=O)N(C)c3ccc(Cl)cc3)cc2c1=O (centres unmarked) | -9.42
COC(=O)c1[nH]c(C)c(/C(O)=C2\C(=O)C(=O)N(CCN(C)C)C2c2cc(OC)ccc2OC)c1C (centres unmarked) | 15.2
CC(=O)N(C(C)=O)c1c(C#N)c(C)n(-c2ccccc2)c1C(=O)c1ccccc1 | -1.51
COc1ccc(-c2ccccc2)cc1NCc1ccc(OC)c(OC)c1 | 6.76
O=C(NNC(=S)NC(=O)c1ccccc1[N+](=O)[O-])c1ccccc1 | 11.7
N#C/C(=N\Nc1ccc(F)cc1)C(=N)N1CCCCCC1 | 5.96
CCC(=O)N1CCc2cc(Br)cc(S(=O)(=O)NCCN3CCCCC3CC)c21 (centres unmarked) | -7.81
Cc1ccc(C(=O)c2c[nH]cc2-c2ccccc2)cc1 | 7.18
CCc1nc(N2CCN(C(=S)NCCCOC)CC2)c2c3c(sc2n1)CCCC3 | 8.02
CCOc1ccc(NC(=O)Cc2ccc(NC3=NC4CS(=O)(=O)CC4S3)cc2)cc1 (centres unmarked) | 1.77
O=C(O)COc1ccccc1/C=N/NC(=O)C(O)c1ccccc1 (centres unmarked) | 8.28
CCOc1ccc(C(=O)NC(C(=O)NCc2ccccc2OC)C(C)C)cc1 (centres unmarked) | 11.3
O=C(CSc1ccccc1)N1CCCC(Nc2ccccc2)C1 (centres unmarked) | 4.04
COc1cccc(O)c1CN1CCCC(C(=O)c2cccc(C(F)(F)F)c2)C1 (centres unmarked) | 0.0042
COc1ccc(N(CC(=O)NCCSC2CCCCC2)S(=O)(=O)c2ccccc2)c(OC)c1 | 5.71
Cc1ccc(CCNC(=O)C2CCN(S(=O)(=O)c3cccc4cccnc34)CC2)cc1 | 10.3
O=C(Nc1cccc(S(=O)(=O)N2CCCC2)c1)c1cccc(OC(F)F)c1 | -5.35
O=C(CCC1CCCC1)NCCS(=O)(=O)N1CCN(c2ccc(F)cc2)CC1 | -17.9
c1ccc(Cc2nn[nH]n2)cc1 | 7.6
Cc1ccc(S(=O)(=O)NC(=O)COc2ccccc2C)c(C)c1 | -8.68

Structure (SMILES) | hERG current change (%, negative = inhibition) at 1uM [%]
Cc1csc(NC(=O)c2ccc(Cl)cc2[N+](=O)[O-])n1 | -20.2
CCN1C(Nc2ccccc2)=NC[C@@H]1C | 13
O=C(c1ccccc1Br)N1CCc2c([nH]c3ccccc23)C1 | 16.1
CC1CCC(NC(=O)CN2C(=O)NC3(CCCCCC3)C2=O)CC1 (centres unmarked) | -0.921
C/C(=N\NS(=O)(=O)c1c(C)cc(C)cc1C)c1ccncc1 | 2.35
COc1ccc(NC(=O)c2ccc3nc[nH]c3c2)c(OC)c1 | -0.49
COc1ccc(C2=NOC3(CC(=O)N(c4ccc(Cl)cc4)C3=O)C2)c(OC)c1 (centres unmarked) | -4.92
OCC1(Cc2ccccc2)CCN(Cc2ccc(C(F)(F)F)cc2)CC1 | -6.85
CN1CC=C(c2c[nH]c3ccccc23)CC1 | 5.59
CC12CCC3C(CCC4N(CCO)CCC34C)C1CCC2O.Cl (centres unmarked) | 20.4
COc1ccc2cc(C3(C)NC(=O)NC3=O)ccc2c1 (centres unmarked) | 7.06
Oc1ccc(C2C(c3ccccc3)=NN=C(c3ccc(Cl)cc3)N2O)c(O)c1 (centres unmarked) | 1.57
Cc1ccc(/C=C/C(=O)NC2CCS(=O)(=O)C2)cc1 (centres unmarked) | 8.88
Cn1ncc(Br)c1C(=O)Nc1c(F)c(F)cc(F)c1F | 8.9
O=C(c1cc(Br)c(Br)s1)N1CCOCC1 | 14.3
CC1=NN(c2ccc(Cl)cc2)C(=O)C1C(c1cccc(O)c1)c1c(C)[nH]n(-c2ccc(Cl)cc2)c1=O (centres unmarked) | 3.44
COC(=O)c1ccc(C2C(Oc3ccccc3)C(=O)N2CCc2ccc(OC)c(OC)c2)cc1 (centres unmarked) | 14.2
COc1ccc2c(c1)NP(=S)(Oc1ccccc1)N2 (centres unmarked) | 6
COCCNC(=O)Cn1nc(-c2ccccc2)c2ccccc2c1=O | 11.9
CC1CCc2nc(/C(C#N)=C/c3ccncc3)sc2C1 (centres unmarked) | 9.29
